# Experimental data reported in the supplement of paper PMC10338343.
# ± gives the standard deviation. The full ranking holds about 6,600 sequences; the median of “pre-steady-state target cleavage rate” is about 0.07, and the highest 2% start at about 0.72. The list shows a part of the results, in another mix than the full data.
# System: MIWI (PIWIL1) piRISC loaded with Kctd7 piRNA (30 nt)
# Assay: pre-steady-state target cleavage rate (min^-1); MIWI and MILI are mouse PIWI proteins and EfPiwi is from a freshwater sponge; tags in brackets are library labels; higher = faster piRNA-guided slicing of the target
# Settings: guide: Kctd7 piRNA 5'p-UGUUAAUCUCUCAGAGAAGGUGACAGUGAU; auxiliary factor: 500 nM mouse GTSF1
# In short: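 A transcribed, DNA-blocked target RNA library […] was incubated at 33 °C for 0–8 or 0–960 min with 1 nM active affinity-purified piRISC carrying one synthetic guide, in HEPES–potassium acetate buffer with or without 500 nM GTSF1 partner protein. Uncleaved targets were then sequenced and normalised to depth and to weakly complementary targets. Data from three trials were pooled, with k3 capped at 0.0001 min^-1, and a burst-and-steady-state fit yielded the pre-steady-state cleavage rate.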
# 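Further: 1 nM active piRISC with 0.1 nM target library at 33 °C single turnover.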
row,Sequence,pre-steady-state target cleavage rate
1,UAGACUGAGUCCUUCUCUGAGAGAUUAAGA,0.0188 ± 0.0034
2,UAGUGACAGACCAACUCUGAGAGAUUAAGA,< 0.0001
3,UUCAGUGUCACCUUCUCUGAGAGAUUAUCA,0.189 ± 0.034
4,UACACUGUCACCUUCUCUGACAGAUUAAGA,0.00873 ± 0.005
5,UAGUGAGUCACGUUCUCUGAGAGAAUAACA,0.183 ± 0.029
6,UAGUGACAGAGGAUCUCUGAGAGAUUAUGA,< 0.0001
7,UACACUGUCACCUUCUCUGAGAGAUAAUGA,0.107 ± 0.032
8,UACACUGUCACCUUCUCUGAGAGAUUUUCA,0.206 ± 0.044
9,UUCACUGACACCUUCUGUGAGAGAUUAACA,0.34 ± 0.022
10,UAGUGUGUCACCUUCUCUGAGAGAAAUACA,0.0539 ± 0.019
11,UAGUGACAGUGGAAGUCUGAGAGCAUUAACA,< 0.0001
12,UAGUGACUCACCGUCUCUGAGAGAUUAACA,0.431 ± 0.05
13,UAGUGAGUCACGUUCUCUGAGAGAUUAAGA,0.115 ± 0.018
14,UAGUGUGUCACCUUCUCUGAGAGAUAAUGA,0.0337 ± 0.01
15,UAGUGACAGUGCUUCUCUGAGAGAUUAUACA,0.0041 ± 0.0037
16,UAGUGAGUCACCUUCUCUGAGAGUUUUACA,0.265 ± 0.055
17,UAGUGAGUCACCUUCACUGUGAGAUUAACA,0.171 ± 0.012
18,UAGUGUGUCGACCUUCUCUGAGAGAUUAACA,0.155 ± 0.017
19,UAGUGUGUCACCUUCUCUGAGAGAUUUACA,0.361 ± 0.052
20,UAGUGACAGUGCUUCUCUGAGAGAUUGACA,0.0132 ± 0.0031
21,UAGUGACAGUCCUUCUCUGAGAGAUAUACA,0.0072 ± 0.0034
22,UAGUGAGUCACCUUCUCUGAGAGAAUUACA,0.129 ± 0.048
23,AUCACAGUCACCUUCUCUGAGAGAUUUACA,0.413 ± 0.053
24,UAGUGACACACCUUCUCUGAGAGACUAACA,0.228 ± 0.042

row,Sequence,pre-steady-state target cleavage rate
1,AUCACUGUCACCAUCUCUGAGAGAAUAACA,0.253 ± 0.042
2,UAGACUGUCACCUUCUGAGAGAGAUUAAGA,0.0102 ± 0.0025
3,UAGUGUGUCACCUUCUAUGAGAGAUUAACA,0.191 ± 0.021
4,AUCUCUGUCACCUUCUGUGAGAGAUUAACA,0.496 ± 0.025
5,AUGACUGUCAGCUUCUCUGAGAGAUUAACA,0.721 ± 0.046
6,UAGUCUGUCACCUACUCUGAGUGAUUAACA,0.0224 ± 0.0033
7,UAGUGACAGUGGAAGACUCAGAGAUUUACA,< 0.0001
8,UAGUGUCUCACCUUCUCUGAGAGAUUAUCA,0.239 ± 0.033
9,UAGUGUGUCACGAACUCUGAGAGAUUAAGA,0.00268 ± 0.0022
10,UAGUGAGUCAGCUUCUCUGAGUGAUUAACA,0.0171 ± 0.0038
11,UAGUCUGUCACCUUCUCUGAGAGAUUCACA,0.434 ± 0.074
12,UAGUGAGUGACCUUCUCUCAGAGAUUAACA,0.0655 ± 0.011
13,UAGUGACAGUGCGUUCUCUGAGAGAUUAACA,0.0485 ± 0.0053
14,UAGUGUGUCACCUUGUCUGAGAGAUUAUCA,0.0628 ± 0.014
15,UAGUGACAGACCUUCUCAGAGAGUUUAACA,0.00682 ± 0.004
16,UAGUCUCAGACCUUCUCUGAGAGAUUAACA,0.257 ± 0.021
17,UACACUGUCACCUUCUCUGAGAGAUUAAUA,0.391 ± 0.051
18,AUCAGAGUCACCUUCUCUGAGAGAUUAACA,0.643 ± 0.037
19,UACAGUGUCACGUUCUCUGAGAGAUUAACA,0.623 ± 0.025
20,UACACUCUCUCCUUCUCUGAGAGAUUAACA,0.349 ± 0.022
21,UAGUCUGUCACCUUCUCUGAGAGAUUAAGA,0.122 ± 0.021
22,UAGUGAGUCACCUUCUCUGAGUAGAUUAACA,0.00588 ± 0.0042
23,UAGUGUGACACCUUGUCUGAGAGAUUAACA,0.113 ± 0.013
24,UUCUGAGUCACCUUCUCUGAGAGAUAUUGA,0.0507 ± 0.011

row,Sequence,pre-steady-state target cleavage rate
1,AUCACUGUCACCUUCUCUGAGAGAUAUUGA [g6:g30:cont:t1A],0.0731 ± 0.024
2,UAGUGACAGACCAACUCUGAGAGAUUUUGA,< 0.0001
3,UAGACUGUCACCUUCUCUGAGAGAAAUACA,0.0241 ± 0.0079
4,UAGUGAGUCAGCUUGUCUGAGAGAUUAACA,0.375 ± 0.023
5,UACACUGUCACCUUGUCAGAGAGAUUAACA,0.201 ± 0.03
6,AUCACUGUCACCUUCUCUCUGAGAUUAAGA,0.0105 ± 0.0043
7,AUCUCUGUCACCUUCUCAGAGAGAUUAACA,0.245 ± 0.024
8,UAGUGUGUCACCUUCUCUGAGUGAAUAACA,0.0109 ± 0.0056
9,UAGACUGUCACCUUCUCUGAGAGAUUAUCA,0.315 ± 0.035
10,UAGACUGUCACCUUCUCUGAGUGAUAAACA,0.00863 ± 0.0026
11,UUCACUGUCACCUUGUCUGUGAGAUUAACA,0.127 ± 0.0089
12,UAGUGUGUCACCUUGUCUGAGUGAUUAACA,0.0222 ± 0.0048
13,UACUCUGACACCUUCUCUGAGAGAUUAACA,0.528 ± 0.028
14,UAGACUGUCCCUUCUCUGAGAGAUUAACA,0.609 ± 0.052
15,UAGUGAGUCACCUACUCUCAGAGAUUAACA,0.0407 ± 0.0094
16,AUCACUGUCACCUUCUCUGAGAGUUAAACA,0.355 ± 0.069
17,UAGUGAGUCACCUUGUCUGAGAGAUUAACA,0.136 ± 0.02
18,UAGUGUGUCACCAUCUCUGAGAGUUUAACA,0.299 ± 0.058
19,UAGUGUGUCACCUUGUCUGAGAGAAUAACA,0.00693 ± 0.0042
20,UAGACUGUCACCUAUCUCUGAGAGAUUAACA,0.609 ± 0.047
21,UAGACUGUCACCUUCAGUGAGAGAUUAACA,0.0785 ± 0.013
22,UUCUCUGUCACCUUCUCUGAGAGAUUAUCA,0.238 ± 0.04
23,AUCACUGUCACCUUCUCUGAGAGUUAUUGA,0.328 ± 0.08
24,UAGUGAGUGAGCUUCUCUGAGAGAUUAACA,0.155 ± 0.014
